Reference: US4857549A, “Antitumor compounds” (priority 1988, dated 1989)
Where “and” joins values, the source holds several entries; their conditions need not be identical. Equal values may be shown once. At least one read-out could not be matched to a standard name with certainty.

Tested on: P388 leukemia
Details: Table BI; ip P388 leukemia mice, ip days 1-5; slash-separated figures are separate experiments; compound 33: 41 experiments

Row | Structure (SMILES) | ILS (maximum increase in lifespan)
1 | CC(C(C)P(c1ccccc1)c1ccccc1)P(c1ccccc1)c1ccccc1 (single isomer, unassigned; (-)) [Compound 42] | 73% and 40%
2 | C(=C/P(c1ccccc1)c1ccccc1)/P(c1ccccc1)c1ccccc1 [Compound 34, cis-bis(1,2-diphenylphosphino)ethylene] | 60% and 70%
3 | CC(CP(c1ccccc1)c1ccccc1)P(c1ccccc1)c1ccccc1 (centres unmarked) [Compound 35, Bis(1,2-diphenylphosphino)propane] | 90% and 85% and 95%
4 | C[C@H](CP(c1ccccc1)c1ccccc1)P(c1ccccc1)c1ccccc1 [Compound 36, R-(+)-bis(1,2-diphenylphosphino)propane] | 100% and 60%
5 | c1ccc(P(CCCP(c2ccccc2)c2ccccc2)c2ccccc2)cc1 [Compound 37, bis(1,3-diphenylphosphino)propane] | 75% and 65%
6 | c1ccc(P(CCCCP(c2ccccc2)c2ccccc2)c2ccccc2)cc1 [Compound 38, Bis(1,4-diphenylphosphino)butane] | 45% and 55%
7 | c1ccc(P(CCCCCP(c2ccccc2)c2ccccc2)c2ccccc2)cc1 [Compound 39, Bis (1,5-diphenylphosphino)pentane] | 50% and 40%
8 | c1ccc(P(c2ccccc2)c2ccccc2P(c2ccccc2)c2ccccc2)cc1 [Compound 40, Bis(1,2-Diphenylphosphino)Benzene] | 70% and 55%
9 | [2H]c1c([2H])c([2H])c(P(CCP(c2c([2H])c([2H])c([2H])c([2H])c2[2H])c2c([2H])c([2H])c([2H])c([2H])c2[2H])c2c([2H])c([2H])c([2H])c([2H])c2[2H])c([2H])c1[2H] [Compound 43, 1,2-Ethanediyl-bis[di(phenyl-d5)phosphine]] | 80% and 95%
10 | C1CCC(P(CCP(C2CCCCC2)C2CCCCC2)C2CCCCC2)CC1 [Compound 44, 1,2-bis(dicyclohexylphosphino)ethane] | 80% and 68%
11 | Fc1ccc(P(CCP(c2ccc(F)cc2)c2ccc(F)cc2)c2ccc(F)cc2)cc1 [Compound 45, 1,2-ethanediyl-bis[bis(4-fluorophenyl)phosphine]] | 60% and 55%
12 | Fc1cccc(P(CCP(c2cccc(F)c2)c2cccc(F)c2)c2cccc(F)c2)c1 [Compound 46, 1,2-Ethanediyl-bis[bis(3-fluorophenyl)phosphine]] | 45% and 65%
13 | CSc1ccc(P(CCP(c2ccc(SC)cc2)c2ccc(SC)cc2)c2ccc(SC)cc2)cc1 [Compound 48, 1,2-Ethanediyl-Bis[Bis(4-methylthiophenyl)phosphine]] | 58% and 35%
14 | CCP(CC)CCP(CC)CC [Compound 49] | 25% and 30%
